Source: PubChem BioAssay (NCI)
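Grown in 96-well plates, cells were treated for 48 hours with each compound at five concentrations. Insufficient inhibition: endpoint recorded as highest concentration tested. GI50: concentration for 50% inhibition of growth. At the TGI there is no net growth.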 Peptide text beside a SMILES is read from it.

What follows are compounds tested on NCI-H322M lung (assay: NCI tumour cell line growth inhibition, 48 h).

SMILES	TGI [µM]	GI50 [µM]
Cc1cn(CC2(CO)CCC2)c(=O)[nH]c1=O	> 100	
CC12CP(=O)(O)CC1C2(Cl)Cl (stereo not drawn)	> 100	
OCC#Cc1ccccc1C#Cc1ccc(C#Cc2ccccc2C#CCO)cc1	> 100	> 100
C=C(C)[C@@H]1C/C=C(/COC(C)=O)CC[C@H]2O[C@@]2(C)CC/C=C(\C)CC1	> 100	> 100
CC1(C)CC[C@]2(C)[C@@H](O)C[C@]3(C)C(=CC[C@@H]4[C@@]5(C)CC[C@H](O)C(C)(C)[C@@H]5CC[C@]43C)[C@@H]2C1	> 100	
C/C=C(\C)C(=O)OC1C2C(C)=CC(=O)C(O)C2(C)C2C3(O)OCC24C1OC(=O)C(OC(C)=O)C4C(C)C3O (stereo not drawn)	1.18	
COc1ccc(CC2Cc3ccccc3CC(=O)N2)cc1OC (stereo not drawn)	> 100	
CCCC(=O)Oc1c2ccsc2c(OC(=O)CCC)c2ccsc12	7.52	
N#Cc1ccc2[nH]cc(Cc3c[nH]c4ccc(C#N)cc34)c2c1	21.7	8.43
COc1c(C)c(C/C=C(\C)CC/C=C(\C)CC/C=C(\C)CC/C=C(\C)CCC=C(C)C)c(OC)c(OC)c1OC	> 100	
COc1cc(/C=C/C(=O)c2ccccc2O)ccc1OCCCOc1cc2c(cc1OC)C(=O)N1CCC[C@H]1C=N2	1.4	0.283
COC(=O)c1ccc(NCC2=CC(=O)C=CC2=O)cc1O	43	
CCOP(=O)(OCC)/C(=C\n1ccc(=O)[nH]c1=S)C(=O)OC	> 100	
CN1/C(=C\N=O)C(C)(C)N(O)C1(C)C	> 100	
Cc1cc(C)c([I+]c2c(C)cc(C)cc2C)c(C)c1	4.55	2.04
O=C1C=CC(=O)c2c(O)c(NCCN3CCOCC3)c(Cl)c(O)c21	4.21	
NC1=C(O)/C(=N/NS(=O)(=O)c2ccccc2)C(c2ccc3c(c2)OCO3)O1 (stereo not drawn)	> 100	
O=C(O)C(Cc1ccccc1)N=Cc1nc(-c2ccccc2)oc1O (stereo not drawn)	> 100	
COc1ccc(N[C@H](CS(=O)c2ccc(C)cc2)C(F)(F)F)cc1 (stereo partly drawn)	> 100	
Cc1cn(C(CO)OC(CO)CN(O)C2C3CC4CC(C3)CC2C4)c(=O)[nH]c1=O (stereo not drawn)	> 100	
O=C1C2CCCC2N1Cc1ccccc1 (stereo not drawn)	> 100	
COc1ccc(-c2oc3ncnc(N)c3c2-c2ccc(NC(=O)Nc3cc(C(F)(F)F)ccc3F)cc2)cc1	9.6	1.45
C[n+]1c2ccccc2n2c3ccccc3c(NCc3ccco3)c(C#N)c21	18.8	

SMILES	TGI [µM]	GI50 [µM]
COc1ccc2[nH]c3c(c2c1)CCc1c(OC)cccc1-3	> 100	
Nc1nncc2n[nH]nc12	> 100	
COc1cccc(C2SC(C)C(=O)N2NC(=O)C(O)c2ccccc2)c1 (stereo not drawn)	> 100	> 100
Cc1cc(OP2(=O)NCc3ccncc3O2)ccc1Cl (stereo not drawn)	> 100	
[Mn+3].[O-][Cl+3]([O-])([O-])O.[O-]c1ccccc1C=NCCN1CC1.[O-]c1ccccc1C=NCCN1CC1	> 100	14.3
O=C(O)c1nn(-c2ccc(Cl)cc2)c2c1C(=O)c1ccccc1C2=O	> 100	
Cc1ccc(NC(=O)C(=O)C2C(=O)NC(=O)NC2=O)c(C)c1	> 100	
OCC1CC2C=CCC(C2)C1 (stereo not drawn)	> 100	
CC(C)(C)c1ccc(NS(=O)(=O)c2ccc(N)cc2)cc1	> 100	
COc1ccc(Cc2ccc3[nH]c(=O)cc(C)c3c2)cc1S(=O)(=O)O	> 100	
Cc1ccc(N2C=Nn3c(nc4sc5c(c4c3=O)CCCC5)C2)cc1	> 100	
CCCCCCCC(=O)Nc1nc2[nH]c(CN3CCN(Cc4cccc(I)c4)CC3)c(CN3CCN(Cc4cccc(I)c4)CC3)c2c(=O)[nH]1	1.88	0.87
C=C[C@@H]1CCC/C=C/[C@@H]2C[C@H](O)C[C@H]2[C@H](O)/C=C/C(=O)O1	> 100	0.801
CC(=O)NC(CS)C(=O)NC(CO)C(=O)NC(CO)C(=O)NC(Cc1c[nH]c2ccccc12)C(=O)N1CCCC1C(=O)NC(CO)C(=O)NC(Cc1c[nH]c2ccccc12)C(=O)NC(Cc1c[nH]cn1)C(=O)NC(CO)C(=O)NC(Cc1c[nH]c2ccccc12)C(=O)NCC(=O)NCC(=O)NC(C)C(=O)NC(CCC(N)=O)C(=O)NC(CCCCN)C(=O)NC(C)C(=O)NC(CCCNC(=N)N)C(=O)NC(CCCCN)C(N)=O (stereo not drawn) (Ac-CSSWPSWHSWGGAQKARK-NH2; configuration not given here)	> 50	
Brc1ccc2nc(-c3cccs3)nc(N3CCN(c4ccccc4)CC3)c2c1	> 100	
COC(=O)Cc1cccc2c(=O)c(S(=O)(=O)NC(=O)Nc3ccc(Cl)cc3)c(-c3ccccc3)oc12	> 100	
COc1cc(/C=C2\C[C@H]3[C@@H]4CC=C5C[C@@H](O)CC[C@]5(C)[C@H]4CC[C@]3(C)[C@H]2O)ccc1OCCN1CCCCC1	2.16	1.03
Cn1cc(-c2ncnc3ccc(-c4cnc(Cl)c(NS(C)(=O)=O)c4)cc23)c2ccccc21	29.5	0.741
CSc1nc2nccnc2c(=O)[nH]1	> 100	
CSc1nc2c(nc(N)n2C2OC(CO)C(O)C(O)C2O)c(=O)[nH]1 (stereo not drawn)	> 100	
COc1ccc(/C=C/c2cc(OC)c(OC)c(OC)c2)cc1OC	> 100	
CCC(CO)Nc1nc(NCc2ccccc2)c2n[nH]c(C(C)C)c2n1 (stereo not drawn)	25.4	10.4
